PubChem BioAssay AID624296 (National Center for Advancing Translational Sciences (NCATS), 2012)
The campaign covered roughly 350,000 compounds. About 9,900 (2.8%) were called active. The inconclusive results got no clear call from the source; some entries with a clear call stand among them for comparison. Calls come from the whole dose curve; as a rule, active = well fitted activation curve with a large enough effect; inconclusive = small, poorly fitted or top-dose-only effect; inactive = no such curve, though single readings can be large or run the other way. Potencies of inconclusive entries are left out as doubtful fits.

Assay: A quantitative high throughput screen for small molecules that induce DNA re-replication in MCF 10a normal breast cells. For activity, positive = re-replication: % of control where 0% means no effect. Note: nearly all actives have a fitted effect of over 50% in size.
Settings: MCF 10A DNA re-replication, Hoechst nuclear intensity, 48 h; activity, positive = re-replication: at 46.1 µM (top of the series)
Potency is the fitted concentration of half-maximal effect; tags give direction and shape of the fitted curve.

| SMILES | activity, positive = re-replication | Potency |
| --- | --- | --- |
| CC(C)(C)OC(=O)C[C@H]1C/C=C\C[C@@H](CC(=O)NCCO)C(=O)NCCOC1=O | inactive: 16.6% |  |
| Cc1ccc2[nH]c3c(=O)n(CC(=O)Nc4ccccc4N4CCN(C)CC4)ncc3c2c1 |  | inconclusive [activator, single point] |
| COc1ccccc1-n1c(SCC(=O)NC2CCS(=O)(=O)C2)nc2cc([N+](=O)[O-])ccc21 (stereo unspecified) | inactive: -0.984% |  |
| Brc1ccc2ncnc(NCc3ccco3)c2c1 |  | inconclusive [activator, partial curve] |
| CC(C)CCNC(=O)c1cc(-c2ccco2)nc2ccccc12 | inactive: 7.63% |  |
| CC(C)C(=O)Nc1cc(S(=O)(=O)Nc2ccc(Cl)cc2)ccc1Cl |  | inconclusive [activator, single point] |
| NNC(=O)[C@H](Cc1ccccc1)NC(=O)Nc1ccc2c(c1)OCCO2 | inactive: 1.48% |  |
| CCOC(=O)N1CCN(C(=O)CN2C(=O)c3ccccc3S2(=O)=O)CC1 |  | inconclusive [activator, single point] |
| Cc1ccc(NS(=O)(=O)c2cccc(C(=O)NC3CC3)c2)c(C)c1 |  | inconclusive [activator, partial curve, poor fit] |
| Cc1cccc2c1NC(=O)C2(c1ccc(O)cc1)c1ccc(O)cc1 | inactive: 22.5% |  |
| COc1cccc(Nc2nc(-c3sc(N)nc3C)cs2)c1 | inactive: -1.27% |  |
| CC(=O)N1N=C(c2ccc(C)cc2)OC1c1ccc(C(C)C)cc1 (stereo unspecified) |  | inconclusive [activator, single point] |
| O=C(CCCl)Nc1nc2c(s1)CCc1ccccc1-2 |  | active: 18.4 µM |
| COCCn1c(-c2cccs2)nc2nc3ccccc3nc21 |  | inconclusive [activator, single point] |
| O=C(NNC1CC(=O)N(c2ccc(Cl)cc2)C1=O)c1ccco1 (stereo unspecified) |  | inconclusive [activator, single point] |
| CC(C)(C)[C@H](N)C(=O)N[C@H]1CCC2C3CC=C4C[C@@H](O)CC[C@]4(C)C3CC[C@@]21C (stereo partly specified) |  | active: 16.4 µM |
| O=C(N/N=C/c1cccs1)c1ccccn1 | inactive: -0.078% |  |
| O=C(Nc1cc(S(=O)(=O)Nc2ccc(Cl)cc2)ccc1O)c1ccc(F)cc1F |  | inconclusive [activator, partial curve] |
| CCCc1ccc(-c2cc(C(=O)N/N=C/c3ccc([N+](=O)[O-])o3)c3ccccc3n2)cc1 |  | active: 5.01 µM |
| CCOC(=O)c1c(N)sc(C(O)(C(F)(F)F)C(F)(F)F)c1-c1ccc(Cl)cc1 |  | active: 14.6 µM |
| COc1nnc(-c2ccc(N3CCCCC3)c(N)c2)c2ccccc12 |  | inconclusive [activator, single point] |
